These results are taken from paper PMC6028381, “Destabilization of linker histone H1.2 is essential for ATM activation and DNA damage repair” (Cell Research, 2018).

Experiment [1] has as its target T1, HIS-ATM fragment 7 (F7, 1239–1770 aa) (UniProt Q13315 1239-1770).
T1 construct: also called HIS-ATM F7; source: E. coli BL21, purified (HIS agarose beads)
T1 sequence (looked up): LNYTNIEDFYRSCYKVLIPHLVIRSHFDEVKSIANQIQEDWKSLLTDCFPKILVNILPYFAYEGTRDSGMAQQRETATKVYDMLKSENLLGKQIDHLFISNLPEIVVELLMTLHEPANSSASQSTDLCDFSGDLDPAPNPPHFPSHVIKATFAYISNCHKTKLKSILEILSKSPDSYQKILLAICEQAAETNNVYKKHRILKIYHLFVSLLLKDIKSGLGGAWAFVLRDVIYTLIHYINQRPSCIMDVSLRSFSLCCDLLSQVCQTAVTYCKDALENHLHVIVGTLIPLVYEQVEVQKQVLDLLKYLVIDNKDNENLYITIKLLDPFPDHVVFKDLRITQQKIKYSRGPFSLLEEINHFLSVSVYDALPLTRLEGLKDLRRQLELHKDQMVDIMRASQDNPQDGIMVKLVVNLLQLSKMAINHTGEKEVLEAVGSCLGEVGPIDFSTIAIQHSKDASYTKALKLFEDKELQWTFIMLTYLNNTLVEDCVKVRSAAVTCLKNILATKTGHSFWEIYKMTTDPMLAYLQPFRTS
The experiment is described as follows: pull-down; GST pull-down: equal amounts of HIS-fusion protein incubated with GST-fusion proteins (from E. coli) in TEN buffer (10 mM Tris-HCl pH 8.0, 1 mM EDTA, 100 mM NaCl), 4 h, 4 °C; immunoblot; for H1.2-MRE11 also with benzonase. Conditions: both partners purified. For orientation: In western blotting, separated proteins are transferred to a membrane and probed.

For experiment [2], the target named is T2, FLAG-ATM (full-length) (UniProt Q13315 1-3056).
T2 construct: ATM, full-length FLAG-ATM expression construct purchased from Addgene; also called purified ATM protein
The experiment is described as follows: pull-down; FLAG-ATM immunoprecipitated from HEK293T cells on FLAG-conjugated M2 beads, incubated with or without recombinant HIS-H1.2 in kinase buffer, then with recombinant HIS-H2AX and GST-p53 (1–99) without ATP; eluted, immunoblot. The conditions noted are these: both partners purified.

B1: GST-H1.2 C-terminal domain ([…] aa) (domain or fragment)
chain: not shown
notes: also called GST-H1.2 fragment; source: E. coli BL21, purified (glutathione-Sepharose 4B)
As to B1, the binding result in experiment [1] is “binds”.

B2: GST-p53 ([…]) (domain or fragment)
chain: not shown
notes: p53, N-terminal […]; also called N-terminal GST-p53 ([…] aa) peptide; source: recombinant; GST-tagged plasmids expressed in E. coli BL21, purified (glutathione-Sepharose 4B)
Consider B2, for which the binding result in experiment [2] is reported as “binds”.
